Test results from the supplement of paper PMC8728848.
This is one part of the list.

Legend:
Assay in all cases: glycan array binding signal (z-score within array); higher = stronger binding
Conditions in all cases: glycan notation: IUPAC condensed, linker removed
[1] = biological target: Man(a1-2)Man(a1-3)[Man(a1-2)Man(a1-6)]Man(a1-6)[Man(a1-2)Man(a1-2)Man(a1-3)]Man
How it was run: (§1)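 Columns mapping to the same glycan were averaged after glycan names were converted to IUPAC-condensed notation. The data come from 3228 arrays in the Consortium for Functional Glycomics database, limited to those with an available protein sequence. Binding is reported as a within-array Z-score averaged across arrays of one protein sequence and across linkers.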

[2] = biological target: Man(a1-2)Man(a1-3)[Man(a1-2)Man(a1-6)]Man(a1-6)[Man(a1-2)Man(a1-2)Man(a1-3)]Man(b1-4)GlcNAc(b1-4)GlcNAc
How it was run: as §1

[3] = biological target: Man(a1-2)Man(a1-3)[Man(a1-6)]Man(a1-6)[Man(a1-2)Man(a1-3)]Man(b1-4)GlcNAc(b1-4)GlcNAc
How it was run: as §1

[4] = biological target: Man(a1-2)Man(a1-6)[Man(a1-3)]Man(a1-6)[Man(a1-2)Man(a1-2)Man(a1-3)]Man
How it was run: as §1

[5] = biological target: Man(a1-2)Man(a1-6)[Man(a1-3)]Man(a1-6)[Man(a1-2)Man(a1-2)Man(a1-3)]Man(b1-4)GlcNAc(b1-4)GlcNAc
How it was run: as §1

Man(a1-3)[Man(a1-6)]Man = biological target: Man(a1-3)[Man(a1-6)]Man
How it was run: as §1

[6] = biological target: Man(a1-3)[Man(a1-6)]Man(a1-6)[Man(a1-2)Man(a1-3)]Man(b1-4)GlcNAc(b1-4)GlcNAc
How it was run: as §1

[7] = biological target: Man(a1-3)[Man(a1-6)]Man(a1-6)[Man(a1-3)]Man
How it was run: as §1

[8] = biological target: Man(a1-3)[Man(a1-6)]Man(a1-6)[Man(a1-3)]Man(b1-4)GlcNAc(b1-4)GlcNAc
How it was run: as §1

[9] = biological target: Man(a1-3)[Man(a1-6)]Man(b1-4)GlcNAc(b1-4)GlcNAc
How it was run: as §1

[10] = biological target: Man(a1-3)[Man(a1-6)]Man(b1-4)GlcNAc(b1-4)[Fuc(a1-6)]GlcNAc
How it was run: as §1

Man(a1-6)Man = biological target: Man(a1-6)Man
How it was run: as §1

Man(b1-4)GlcNAc = biological target: Man(b1-4)GlcNAc
How it was run: as §1

MurNAc(b1-4)GlcNAc = biological target: MurNAc(b1-4)GlcNAc
How it was run: as §1

Neu5Ac(a2-3)Gal = biological target: Neu5Ac(a2-3)Gal
How it was run: as §1

[11] = biological target: Neu5Ac(a2-3)Gal(b1-3)GalNAc
How it was run: as §1

[12] = biological target: Neu5Ac(a2-3)Gal(b1-3)GalNAc(b1-3)Gal(a1-4)Gal(b1-4)Glc
How it was run: as §1

[13] = biological target: Neu5Ac(a2-3)Gal(b1-3)GalNAc(b1-4)[Neu5Ac(a2-3)]Gal(b1-4)Glc
How it was run: as §1

[14] = biological target: Neu5Ac(a2-3)Gal(b1-3)GalNAc(b1-4)[Neu5Ac(a2-8)Neu5Ac(a2-3)]Gal(b1-4)Glc
How it was run: as §1

[15] = biological target: Neu5Ac(a2-3)Gal(b1-3)GalNAc6S
How it was run: as §1

[16] = biological target: Neu5Ac(a2-3)Gal(b1-3)GlcNAc
How it was run: as §1

[17] = biological target: Neu5Ac(a2-3)Gal(b1-3)GlcNAc(b1-2)Man
How it was run: as §1

[18] = biological target: Neu5Ac(a2-3)Gal(b1-3)GlcNAc(b1-2)Man(a1-3)[GlcNAc(b1-4)][Neu5Ac(a2-3)Gal(b1-3)GlcNAc(b1-2)Man(a1-6)]Man(b1-4)GlcNAc(b1-4)GlcNAc
How it was run: as §1

[19] = biological target: Neu5Ac(a2-3)Gal(b1-3)GlcNAc(b1-2)Man(a1-3)[Neu5Ac(a2-3)Gal(b1-3)GlcNAc(b1-2)Man(a1-6)]Man(b1-4)GlcNAc(b1-4)GlcNAc
How it was run: as §1

[20] = biological target: Neu5Ac(a2-3)Gal(b1-3)GlcNAc(b1-3)Gal(b1-3)GlcNAc
How it was run: as §1

[21] = biological target: Neu5Ac(a2-3)Gal(b1-3)GlcNAc(b1-3)Gal(b1-4)GlcNAc
How it was run: as §1

[22] = biological target: Neu5Ac(a2-3)Gal(b1-3)GlcNAc(b1-3)GalNAc
How it was run: as §1

[23] = biological target: Neu5Ac(a2-3)Gal(b1-3)GlcNAc(b1-4)Gal(b1-4)Glc
How it was run: as §1

[24] = biological target: Neu5Ac(a2-3)Gal(b1-3)GlcNAc(b1-6)GalNAc
How it was run: as §1

[25] = biological target: Neu5Ac(a2-3)Gal(b1-3)GlcNAc6S
How it was run: as §1

[26] = biological target: Neu5Ac(a2-3)Gal(b1-3)[Fuc(a1-4)]GlcNAc
How it was run: as §1

[27] = biological target: Neu5Ac(a2-3)Gal(b1-3)[Fuc(a1-4)]GlcNAc(b1-3)Gal(b1-3)[Fuc(a1-4)]GlcNAc
How it was run: as §1

[28] = biological target: Neu5Ac(a2-3)Gal(b1-3)[Fuc(a1-4)]GlcNAc(b1-3)Gal(b1-4)[Fuc(a1-3)]GlcNAc
How it was run: as §1

[29] = biological target: Neu5Ac(a2-3)Gal(b1-3)[GlcNAc(b1-6)]GalNAc
How it was run: as §1

[30] = biological target: Neu5Ac(a2-3)Gal(b1-3)[Neu5Ac(a2-6)]GalNAc
How it was run: as §1

[31] = biological target: Neu5Ac(a2-3)Gal(b1-3)[Neu5Ac(a2-6)]GlcNAc(b1-3)[Fuc(a1-3)[Gal(b1-4)]GlcNAc(b1-6)]Gal(b1-4)Glc
How it was run: as §1

[32] = biological target: Neu5Ac(a2-3)Gal(b1-3)]Neu5Ac(a2-3)Gal(b1-4)]GlcNAc
How it was run: as §1

B1: PX14375F-bfa-539-21-539 (Bacteroides fragilis) (protein)
chain: EDFLQKDPPSSPSQSVFWQKKSDFESALAGTYSVMYSGVFSQIMPCLDGLTDNAIVQHSEGTYGWAKTIAQGDLTPNQGGFVTDIYGNCYKGIARVHILMEQLDQYTGSDISADEKKFMLAQCKALRGYFYSWLYQCYKEVPVVTQSLDLNTMYQPKATRAEVLNRVMTDYDEAISELPDKLYSDSQTSGRFTVSAVKALKARILLFDAYDSNGKAISSKMEEVLTLLQSIKGYSLAARVRDNFISEKQLASPEIMFSVRFLRPNLTHSMDLYYGAWAVLDPTRNMVDAFECTDGKPWGESPLTVRPDESILYGNDDALKKAERAKMFMNRDRRLYESVNHSMMANFVDDGFKDEEVQVNESNNKGPTGFSALKYVQPTDVTPGYSTVSDADIVVLRYAHVLLMIAEAENEAHGATTTALNAINEVRTRSGQPAIEAGISQDDLRERIRNEWRIETCFEGLRYFQLKRWKLMDKRVNGVEDPAYPGYIKVYKPAFEFFPIPQSEIDKAGGVLKQDPAYE
glycan array binding signal (z-score) [1]: 0.01
glycan array binding signal (z-score) [2]: 0.35
glycan array binding signal (z-score) [3]: -0.236
glycan array binding signal (z-score) [4]: -0.318
glycan array binding signal (z-score) [5]: 0.057
glycan array binding signal (z-score) (Man(a1-3)[Man(a1-6)]Man): -0.656
glycan array binding signal (z-score) [6]: -0.266
glycan array binding signal (z-score) [7]: -0.3
glycan array binding signal (z-score) [8]: -0.28
glycan array binding signal (z-score) [9]: -0.605
glycan array binding signal (z-score) [10]: 0.184
glycan array binding signal (z-score) (Man(a1-6)Man): -0.641
glycan array binding signal (z-score) (Man(b1-4)GlcNAc): -0.448
glycan array binding signal (z-score) (MurNAc(b1-4)GlcNAc): -0.015
glycan array binding signal (z-score) (Neu5Ac(a2-3)Gal): 0.06
glycan array binding signal (z-score) [11]: -0.199
glycan array binding signal (z-score) [12]: -0.715
glycan array binding signal (z-score) [13]: 0.409
glycan array binding signal (z-score) [14]: -0.099
glycan array binding signal (z-score) [15]: -0.73
glycan array binding signal (z-score) [16]: -0.665
glycan array binding signal (z-score) [17]: 0.584
glycan array binding signal (z-score) [18]: -0.276
glycan array binding signal (z-score) [19]: -0.682
glycan array binding signal (z-score) [20]: -0.815
glycan array binding signal (z-score) [21]: -0.567
glycan array binding signal (z-score) [22]: -0.172
glycan array binding signal (z-score) [23]: -0.468
glycan array binding signal (z-score) [24]: -0.238
glycan array binding signal (z-score) [25]: 1.15
glycan array binding signal (z-score) [26]: -1.04
glycan array binding signal (z-score) [27]: -0.334
glycan array binding signal (z-score) [28]: 0.552
glycan array binding signal (z-score) [29]: -0.411
glycan array binding signal (z-score) [30]: -0.139
glycan array binding signal (z-score) [31]: -0.546
glycan array binding signal (z-score) [32]: -0.1
